Consider two substances from PMC10695398 (PLOS Pathogens, 2023).

Chains of the proteins cited; added tags and fusions are not shown.
UniProt P40763: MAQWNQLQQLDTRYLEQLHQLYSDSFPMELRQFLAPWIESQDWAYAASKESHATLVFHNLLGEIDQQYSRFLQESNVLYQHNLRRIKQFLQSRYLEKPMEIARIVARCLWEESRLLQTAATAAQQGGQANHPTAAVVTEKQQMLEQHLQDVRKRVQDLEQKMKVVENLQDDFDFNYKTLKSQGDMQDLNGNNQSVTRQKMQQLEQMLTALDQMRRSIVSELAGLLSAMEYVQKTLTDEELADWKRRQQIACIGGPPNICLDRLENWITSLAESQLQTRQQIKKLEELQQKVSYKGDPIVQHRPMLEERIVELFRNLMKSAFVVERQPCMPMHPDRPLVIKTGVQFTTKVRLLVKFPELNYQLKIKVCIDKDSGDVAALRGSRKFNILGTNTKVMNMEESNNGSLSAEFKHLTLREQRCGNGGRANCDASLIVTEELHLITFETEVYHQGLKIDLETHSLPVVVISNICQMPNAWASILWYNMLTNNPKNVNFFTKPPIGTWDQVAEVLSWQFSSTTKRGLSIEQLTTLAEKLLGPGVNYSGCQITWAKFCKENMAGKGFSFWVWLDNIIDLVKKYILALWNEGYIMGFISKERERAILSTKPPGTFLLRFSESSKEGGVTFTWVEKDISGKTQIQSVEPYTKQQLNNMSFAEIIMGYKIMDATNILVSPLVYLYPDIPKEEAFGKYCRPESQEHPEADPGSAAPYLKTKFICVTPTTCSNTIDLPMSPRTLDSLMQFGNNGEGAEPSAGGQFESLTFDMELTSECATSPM

These are yes or no findings as the source states them, for the method shown. Binding seen in cells or lysates may run through a third protein.

The experiment has as its target CBD (chitin-binding domain)-tagged STAT3 (UniProt P40763). In words: co-IP.

In the case of “Flag-tagged vIRF-1 deletion variant Δ2 (deleted of residues 23-47) (from UniProt F5HF68 1-449)”, the binding result was “no binding”. The same measure for “Flag-tagged vIRF-1 deletion variant Δ3 (deleted of residues 48-72) (from UniProt F5HF68 1-449)”: “no binding”.
